This note sets out measurements from ChEMBL document CHEMBL1201862, “PubChem BioAssay data set” (2004).

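Growth conditions: 96-well plates. Treatment: test compound, 48 hours, 5 concentrations. Analysis: linear interpolation between bracketing concentrations; unreached endpoints set to highest concentration. GI50: concentration for 50% inhibition of growth.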 Active and inactive are the calls of the source. No stated cut-off is given here; in the data, active = GI50 up to about 1.1 µM and inactive = higher.

The test concerns NCI-H322M. The test is described as follows: DTP human tumour cell line panel, 48 h.
For `COc1ccc(/C=C2/C(=O)N(C(=O)c3ccccc3O)N=C2C)cc1`, the GI50 is inactive: 1.18 µM. The result for `COc1nc(N)c(N=O)c(OCc2ccccc2)n1` reads inactive: > 10 µM; that for `COc1ccc(NC(=O)/C(Cc2cc(=O)oc3cc(O)ccc23)=N\NC(C)(C)C)c(OC)c1`, inactive: > 100 µM; that for `COC(=O)C1=CC2CC1C(S(=O)(=O)c1ccccc1)C2S(=O)(=O)c1ccccc1` (stereo unspecified), inactive: 55.5 µM. The result for `CCOC(=O)C1Cc2c(cc3c4c(cccc24)N(C(C)=O)C3)N(C)C1` (stereo unspecified) reads inactive: > 100 µM; that for `CC(=O)N[C@@H](Cc1ccc(O)cn1)C(=O)NCc1cccc(F)c1`, inactive: > 100 µM. `N=C1/C(=C/c2ccc(F)cc2)C(=O)N=C2SC=NN12`: the GI50 is inactive: > 100 µM.

For the compound `Cn1c2c(c3ccccc31)CCN(CCCCN1CCCCC1)C2=O`, the GI50 is inactive: 85.3 µM. Next, `CCc1c(C)c(C#N)c(=S)n(C2OC(CO)C(O)C(O)C2O)c1C` (stereo unspecified): inactive: > 100 µM. Next, `CCOc1cc(/C=C2/C(C)=NN(c3cccc(Cl)c3)/C2=N/c2nc3ccccc3s2)ccc1O`: inactive: 26.1 µM; `O=[N+]([O-])c1ccc(N2N=C(c3ccc(NCc4nc5ccccc5[nH]4)cc3)CC2c2ccco2)cc1` (stereo unspecified): inactive: 30.3 µM; `Cc1cc2c(C)nn(Cc3ccc(Cl)cc3)c2c(C#N)c1C`: inactive: > 100 µM.

On to `CCOC(=O)c1cc2c([N+](=O)[O-])c(NC(C)=O)ccc2s1`, for which the GI50 is inactive: > 100 µM. The result for `CCCc1nnc2sc(COc3cc(Cl)c(OCc4nn5c(CCC)nnc5s4)cc3Cl)nn12` reads inactive: 61.9 µM.

For the compound `CNC(=S)Nc1sc2c(c1C#N)CCCC2`, the GI50 is inactive: > 75 µM. Turning to `O=[N+]([O-])c1ccc(Cc2nc3ccccc3s2)cc1`, the GI50 was inactive: > 100 µM. Next, `CC(=O)OC(C)(C)/N=N/c1ccc(Br)cc1`: inactive: 44.9 µM. The result for `CCC(=O)OCN(C)c1nc(N(C)COC(=O)CC)nc(N(C)COC(=O)CC)n1` reads inactive: > 100 µM; that for `COc1cc2c3c([nH]c2c(OC)c1OC)CCN(Cc1ccccc1)C3`, inactive: 42.6 µM. Next, `Cc1[nH]c2ncn3nc(C(Cl)(Cl)Cl)nc3c2c1Cc1ccccc1`: inactive: > 100 µM; `O=C(NNC(=S)NCc1ccccc1)C12CC3CC(CC(C3)C1)C2`: inactive: 56.5 µM; `O=C(N/N=C/C=C/c1ccc([N+](=O)[O-])o1)c1ccc(Br)s1`: inactive: > 100 µM.

For `CCCNC(C#N)c1ccc(C(C#N)NCCC)cc1` (stereo unspecified), the GI50 was inactive: > 100 µM. The result for `CN1C(c2ccccc2)CC(=NOCc2ccccc2)CC1c1ccccc1` (stereo unspecified) reads inactive: 20.3 µM; that for `OC(c1ccccn1)C1CNc2ccccc21` (stereo unspecified), inactive: > 100 µM. The result for `C=C(c1ccccc1)c1cc2c(=O)[nH]ccc2n1C` reads inactive: 62.4 µM; that for `O=c1[nH]nc(Cc2ccc(Cl)cc2)n1O`, inactive: > 100 µM; that for `CN1CCc2c1nc(-c1ccc([N+](=O)[O-])cc1)c1c2N(C)CC1`, inactive: > 100 µM. In the case of `Cc1c(/C=N/NC(=O)c2ccccc2O)c(=O)n(-c2ccccc2)n1C`, the GI50 is inactive: > 100 µM.

For the compound `CCc1c(-c2ccc(OC)cc2)oc(OC)c(C)c1=O`, the GI50 was inactive: > 100 µM.

With `CCCCCCCCCCCCCC(=O)OC1C(CO)OC(=O)C1O` (stereo unspecified), the GI50 was inactive: > 100 µM. The result for `c1ccc2c(c1)nc1n2CNCC1` reads inactive: > 100 µM; that for `O=C(CC1OC(O)C(Cl)=C1Cl)c1cccnc1` (stereo unspecified), inactive: > 100 µM; that for `COc1ccc(/C=N/n2cnc3c(c2=O)S/C(=C2/SC(=S)N(c4ccc(C)cc4)C2=O)N3c2ccccc2)cc1`, inactive: > 100 µM. Next, `C#Cc1cccc(N2C(=O)c3c(c(-c4ccccc4)c(-c4ccc(Cc5ccc(-c6c(-c7ccccc7)c7c(c(-c8ccccc8)c6-c6ccccc6)C(=O)N(c6cccc(C#C)c6)C7=O)cc5)cc4)c(-c4ccccc4)c3-c3ccccc3)C2=O)c1`: inactive: > 100 µM. `O=C(OCCO)C1CC2CC1C1(C2)OCCO1` (stereo unspecified): the GI50 was inactive: > 100 µM. Consider `CC(NCc1c(O)ccc2ccc(=O)oc12)C(=O)O` (stereo unspecified), for which the GI50 was inactive: > 100 µM. The result for `O=C1NC(=S)NC(=O)C1C(c1ccc(O)cc1)C1C(=O)NC(=S)NC1=O.c1ccncc1` reads inactive: > 100 µM; that for `COC(=O)/C=c1\s/c(=C\C(=O)OC)c2ccccc12`, inactive: > 100 µM. The result for `CC(=O)C(C(C)=O)[C@H]1OC(C)(C)O[C@H]1[C@H]1COC(C)(C)O1` reads inactive: 41.3 µM. The result for `COc1ccc(Cc2c(N)[nH]c(=O)n(C)c2=O)cc1` reads inactive: > 100 µM; that for `CCOP(=O)(OCC)/C(=C/c1cccs1)CC(C)=O`, inactive: > 100 µM. Regarding `COc1ccc(NC(=O)C(=O)C(C(=O)c2ccccc2)C2OC(=O)c3ccccc32)c([N+](=O)[O-])c1` (stereo unspecified), the GI50 is inactive: > 100 µM. The result for `COc1ccc([N+]2=NC(c3ccc([N+](=O)[O-])cc3)=NN(c3ccccc3)C2)cc1.[O-][Cl+3]([O-])([O-])[O-]` reads inactive: 63.1 µM; that for `CC(=O)OCC12CC(CC1OC(C)=O)c1ccccc12` (stereo unspecified), inactive: > 100 µM; that for `Cc1c2c(n3c(nc4ccccc43)c1C#N)N(c1ccc(Cl)cc1)CC2`, inactive: > 100 µM. The result for `COC(=O)c1ccc(NCC2=C(Br)C(=O)C=CC2=O)cc1Cl` reads inactive: > 100 µM; that for `N/N=C1\C(OC(=O)Nc2cccc(Cl)c2)=Nc2ccccc21`, inactive: 9.4 µM; that for `Cc1ccc(C)c(NC2=NC(=O)C(CC(=O)Nc3ccc(Cl)cc3Cl)S2)c1` (stereo unspecified), inactive: 91.2 µM.

Regarding `C[C@]12CCC3[C@@H](C[C@H]4OC(=O)[C@@]35CCC(=O)C=C45)C1CCC2=O` (stereo partly specified), the GI50 is inactive: > 100 µM.

`CCCCCCCCCCOC(=O)NCCC`: the GI50 is inactive: 74.6 µM. The result for `COc1ccc(SCc2cc(OCc3ccccc3)c(OCc3ccccc3)c(OCc3ccccc3)c2)cc1` reads inactive: 1.8 µM; that for `Cc1ccc2c(n1)NC(=O)C(Cc1ccccc1)(N=[N+]=[N-])C2=O` (stereo unspecified), inactive: > 100 µM; that for `COc1cc(C=C(c2ccc(N(C)C)cc2)c2ccc(N(C)C)cc2)c2ccccc2c1OC`, inactive: > 100 µM. In the case of `CCOC(=O)C(C(=O)OCC)=C1NC2(c3ccccc3Nc3ccc(C)cc32)C(C#N)S1` (stereo unspecified), the GI50 is inactive: 15.2 µM. Regarding `Cc1[nH]c2ncn(/N=C/c3ccccc3O)c(=N)c2c1Cc1ccccc1`, the GI50 is inactive: 84.9 µM.

As for `O=C(O)/C=C/C(=O)N1C/C(=C\c2ccccc2)C(=O)/C(=C/c2ccccc2)C1`, the GI50 is inactive: 14.2 µM.

Take `Cc1cc(S(=O)(=O)Nc2nc(N)nc(N(C)C)n2)c(SCC(=O)O)cc1Cl`: the GI50 is inactive: > 10 µM.

`OC1c2ccccc2CCC1C(O)(C(F)(F)F)C(F)(F)F` (stereo unspecified): the GI50 was inactive: > 100 µM. Turning to `Cc1noc(C)c1-n1nc2ccc3nonc3c2n1`, the GI50 was inactive: > 100 µM.

Regarding `COC(=O)c1cc(C)ccc1C1CN=NC12Cc1ccc(C)cc1C2=O` (stereo unspecified), the GI50 was inactive: > 100 µM.

On to `Cc1ccc(S(=O)(=O)N(CC(O)COc2ccccc2)c2ccccc2Cl)cc1` (stereo unspecified), for which the GI50 was inactive: 19.1 µM. As to `CC1CCCc2c(CC3CC(=O)NC(=O)C3)nc(N)nc21` (stereo unspecified), the GI50 was inactive: > 100 µM. Regarding `COc1ccc(Cc2nc3cc(C(F)(F)F)ccc3n2CCCN(C)C)cc1`, the GI50 is inactive: 17.9 µM. The result for `COc1cccc(CC(C)N)c1` (stereo unspecified) reads inactive: > 100 µM; that for `Cc1cc2nc3ccccc3n2c2nc(N)ccc12`, inactive: 37.8 µM; that for `O=C(O)CNc1ccc(Cl)c(Cl)c1`, inactive: 22.6 µM. The result for `COc1cc(NC(C)CCCN)c2nccc(C)c2c1` (stereo unspecified) reads inactive: 18.5 µM; that for `CN(C)CCCNCc1cccc2ccccc12`, inactive: > 100 µM. The result for `COc1ccc(S(=O)(=O)N2C(=O)CCC2C(=O)NC(N)=O)cc1` (stereo unspecified) reads inactive: > 100 µM; that for `C[C@]12CCC(=O)CC1CCCC2=O` (stereo partly specified), inactive: > 100 µM. Take `CC(C)CCCC(C)[C@H]1CC[C@H]2[C@@H]3CC[C@H]4C[C@@H](CCC=C(c5cc(Cl)c(O)c(C(=O)O)c5)c5cc(Cl)c(O)c(C(=O)O)c5)CC[C@]4(C)[C@H]3CC[C@]12C` (stereo partly specified): the GI50 is inactive: > 50 µM. The result for `O=C(Cc1nc2ccc(C(=O)c3ccccc3)cc2nc1O)C(=O)Nc1nc2ccccc2[nH]1` reads inactive: > 100 µM; that for `O=C1CC2(CCC(O)(c3ccco3)C(C(=O)c3ccco3)C2)C(=O)c2ccccc2N1` (stereo unspecified), inactive: > 100 µM; that for `COc1ccc(/C=N/NC(=O)c2ccc(O)c(CN(C)C)c2)cc1`, inactive: > 100 µM.

In the case of `O=C(CNC(=O)c1ccccc1)Oc1c(Cl)c(Cl)c(Cl)c(Cl)c1Cl`, the GI50 is inactive: 27.2 µM.

On to `COc1nc(N)nc2nc[nH]c12`, for which the GI50 was inactive: 184 µM. The result for `CSCC[C@@H](NC(=O)[C@H](CC(C)C)NC(=O)C(Cc1cnc[nH]1)NC(=O)CNC(=O)[C@@H](NC(=O)[C@H](C)NC(=O)[C@H](Cc1cn(C=O)c2ccccc12)NC(=O)[C@H](CCC(N)=O)NC(=O)[C@@H](N)CC(N)=O)C(C)C)C(N)=O` (stereo partly specified) reads inactive: > 100 µM; that for `O=C1/C=C(/c2ccc(O)cc2)[C@@H](OC2OC(CO)C(O)C(O)C2O)Cc2ccc(O)cc2O1.O=C1/C=C(/c2ccc(O)cc2)[C@H](O)Cc2ccc(O[C@@H]3OC(CO)C(O)C(O)C3O)cc2O1` (stereo partly specified), inactive: > 100 µM. Next, `CC(=O)Nc1ccc(S(=O)(=O)Nc2nnc(S(N)(=O)=O)s2)cc1`: inactive: > 100 µM. The result for `COc1ccc(C(C#N)Cc2cc(OC)c(OC)c(OC)c2)cc1` (stereo unspecified) reads inactive: 78 µM.
